# The supplement of paper PMC10681739
# Over roughly 4,100 sequences, “arbitrary fluorescence units” has its median near 780; the highest 2% begin near 22,000. The list shows a part of the results.
# Molecular target: T1, ETS1 (UniProt P14921)
# T1 sequence: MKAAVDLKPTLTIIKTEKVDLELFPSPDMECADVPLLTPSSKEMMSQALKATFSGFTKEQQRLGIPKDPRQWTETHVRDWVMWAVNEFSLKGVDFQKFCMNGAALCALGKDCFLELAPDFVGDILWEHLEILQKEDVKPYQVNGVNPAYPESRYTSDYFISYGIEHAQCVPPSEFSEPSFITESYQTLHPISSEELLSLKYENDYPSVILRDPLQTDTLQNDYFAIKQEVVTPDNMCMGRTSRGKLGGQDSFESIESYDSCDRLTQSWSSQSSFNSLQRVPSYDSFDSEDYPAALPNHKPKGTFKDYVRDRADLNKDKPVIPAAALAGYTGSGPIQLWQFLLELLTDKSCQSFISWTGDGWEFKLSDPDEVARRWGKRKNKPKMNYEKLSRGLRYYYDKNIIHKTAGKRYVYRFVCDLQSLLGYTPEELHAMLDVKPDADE
# Assay: ETS1 binding intensity (PBM fluorescence), ETS1 alone (arbitrary fluorescence units); higher = stronger binding
# Conditions: ETS1 concentration 1 nM; RUNX1 concentration 0 nM
# Protocol: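 gcPBM on 36-bp genomic-derived probes (partner site mutated) containing one ETS1 site and no RUNX1 site. Recombinant human ETS1 (1 nM) was incubated alone or with RUNX1 (25 nM) and detected by anti-ETS1 antibody fluorescence. Values are medians over 4 replicate spots (not normalised). The probes sit in constant array flanks that are not printed.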
row,Sequence,ETS1 binding intensity
1,GCCAGGGCAGGAAGTTGCTAAGCGCCCCAGAGCAGG,4990
2,GAAATCACATCCTTTTGCAAAATCACAGGTGTTTTG,4830
3,TTGAGGGTTTTATAGCTTAACTTTTGCTTCCTGTGT,597
4,CCATCCAGGAAGCTTATGGTGCGACTGCAGTGTGCC,987
5,TGTGTCACTTCCCTATCTGTTTCGGTTGTTCACTCC,1690
6,CATGCCCGTCCGAGCGCGCTGCTTCCGCCTTGCAGC,1420
7,AGGTGCTTTGGCCTTTTTGTCCGGCAGGATGTGATA,538
8,GCTGGGGCCCAGCCCGAGCCAGGCCTTCCTCCCCTC,288
9,AGGTTGTAGTCGGTGACCTCCCAGTTCAGGAAGTCC,450
10,CGCCCGAGCGCGTCACGTGTTCGTCAATTTCCTTCA,369
11,GTCGGTTTTTCTCTGGCTAGCGGATGTTTGGCACCA,809
12,TCTCCTTTCAGGAAGCTGCACCCAAAGCACCCTCAG,680
13,ACAAGCCATTTCCCATTCTTGGGGCTGTAGAGGGGA,1110
14,ACAGGAAGGAACTTGCTCAGGGCCACACCTCAGAGT,375
15,TCTGGGACAGGAAAGACTTGTCGTTACTGCTGTTGA,838
16,TCCGTGAGGTGCAGCAGGTCGGTAGGCGGGAAATGG,378
17,AGTCAGGATGGCAACAGCGATCCCCGGCAACCCCAA,384
18,TAAAGCGGAAGGGGCCGGCTCAGCGGCCTGGCCGCT,1600
19,GCGCGGACTCCGGGAAGCTGAGCGGCAAAGACCGTG,359
20,TCCACGGTAGCCGCGTTCGCCGGAAGGCCGCGACCC,396
21,TACAGCACCGTATATGGCTGAGGGAGGAGGAAGGGA,342
22,CGGGAGGGGCAGGAAGCGGACTGGGGTGGGGAAGGG,2510
23,AGATTCTAGGAAGTGTCTGTAGGCGCAGCTGAGGGT,484
24,AAGCTGGGTGTGCTCTCCTGGGCAGGAAGCCACCAA,467
25,TGGCGCTGCAGGCCGGGCGGGGGCCGCGGAAGCTGC,356

row,Sequence,ETS1 binding intensity
1,TTTCCAGAGGATGTAGCTTCAGCGGGAGAGCTTCAA,659
2,CAGCTGACAGGAAGGAGAGAACGACAGACAGTGCGA,2260
3,GCTAAAGGAAGCTCTGTACAGCTGTCGTAAGGTGGC,591
4,CGTACGCGCACTTCCGGTCTTTGTGACTTGCAGCTC,38700
5,TAGGCGGAAAGCCCGCTAGCCTAAATCACAGAGGGT,355
6,AAAGCCAACTACCAACCGAGAGCGGAAGTCGGGGAC,2530
7,GTAGCAACAGCAGGCTCACACACCGGAAGTGCTCGC,9380
8,GTGCTAAGTGAGGAAGTGCAGTTTACAGCACGGTGG,694
9,ATGGGATTCCCGCTGGTTGCACCGAAGGAAGCAAGG,308
10,GCTCCCCTCAGCCAGCAGAGAAGGCGGAAGCAGTGG,436
11,CCTGAGCGCCCGGAAGGAAGGCTGGGGTAGGTTGTC,756
12,CTCAGACCCTCAGTGAGGTCTGACGTCATTTCCTGC,734
13,GGAACACTGGGGTCGGGGCGAGGAAGCTGCCGGGGA,388
14,CAGGCTGCTGTGCCTACTGCAGCACTTCCTCCCGCT,720
15,CCTCACTAACATCCTGTTGAGGTGTCCCACTATCCA,14800
16,CTAAGCAGAGGCCGGAAGCGGTGGTCTTTAGCGGCT,6000
17,CTGGGCAGGAAAGGACCTGGCCTCCCAGCCCTCAGG,426
18,CCTCAATTTCCTGGCCAGAGAATCCACTGCCTCTCA,5570
19,CTTGGGGCTCCTTTCCACCCGCCCCGGAAGCCGGCC,476
20,AGCGGCGTCTTCGGGGTCCTTCCTGGCGGCGGGCGC,392
21,ATCTGCAACCTCGGAGGCTGCCGCGGGCTTCCTGTC,658
22,AGCTGCATTTCCGGGCAGGCAATGAAACTACAGAGT,18900
23,GTGTTGTCAAAGTAAAAGCTCAGTGTTTCCGTGTTC,618
24,ATGACTCATTTCCTCACTCTCTACTCCCACCGAACC,2490
25,CCATCGGAAGTTTTGGGTTTTGCGCTCACAGCCGCC,512

row,Sequence,ETS1 binding intensity
1,TGCACGTGGGAGATAAGCAGAGGATCCGGCTGGGGT,397
2,TGTTCAGGAACAGGAAATGAAACCCCGCCGCTTTGA,6100
3,TGGCTGTCACTTCCTGTCCCACTGTCGTTCCTGGGA,20600
4,CCCACCCGGCCTACAAAAAGCGGAACACCGAGCTCG,473
5,CGTCCCTGAGGAAGCTGCTGCAGCTTTCTGGGCTAG,409
6,CAGAGAGCGGACTTCCGCGACGCGGCTAAGCCGGGC,3170
7,GCGCCAAGCGCGCGGCCGCGCTTGCCTTTTCCGGTG,697
8,CTCGGAGCGGAACTACTAGGGTGCTTTCTCCTGAGG,550
9,AGCTGGCTGTGCTCAGGGTGGAAACAGGAAGAGAAA,476
10,GCGCGATCTGGGGGTCCCCGGCGCATATCCGGGTCT,669
11,TACCTACATCCTGCCACCACCCGAGGGGACCCCAAG,13200
12,AGCGCTTCCTTGCCGAGAGGCTGGAGCTTCGGCACC,2190
13,CATGAACACCAACAAGCCTGGTTTCCTCTGCGCAGC,537
14,TCTCTACTTCCCATTATTTCTGTCGTTAATTTCACC,2080
15,TGAATATTCTTCCGCACGTACGCACATGGCTCACTT,1010
16,CCCGCTCCTACGGCGCAAGCCCGCCTTCCTGAAGAA,352
17,GGTCCGTGGCCCTGGGCACCTCCATCCGCCGCGGCG,368
18,CTCGGCGCGACGGATATTCCCGTGATCGCCGGGTTC,490
19,AGGCCTGGCCCCCGGACGTGGGCGGCTGCCGGGGCG,409
20,GCCCAGGAAGTGGGTACAAAATGAGCTACAAGACCT,2970
21,GCTGCCGGAAAAGGCGCCGAGGTAGCCGCCTCACTT,1380
22,GGCGCCGCGGAAATCTGTACACACCCCAGCGCGGCC,354
23,AATGCTGTAGTTTCAGCCACAGCATCCGGCGAAGGT,2040
24,CTGCACAGGGAAGTGAGTGTCGAGCTCACTGCACCG,419
25,TTGGTGACCTCTTCCTGTCCGCTGGGGTGTTGTTAC,3680

row,Sequence,ETS1 binding intensity
1,TATATGCACAGGAAGTCCCTTACAACCTACTCTGTT,3590
2,CCGCCTTTCCGGAGCGCGGGCGCGCCGTGGCGGGAG,2820
3,CACTGCATTGTTGGAACGCGGAGCGGAAGCGAAGGG,906
4,CTCGGGGACCTCACCCTGCGCGCCGGGAGGAAGGGC,369
5,TCCTGTAGCTTAGCTGGGAGAACAGGATGACAGCAA,438
6,GTGAGGTTTGTAGTTGGAATCCACTTCCTCTGGTTT,814
7,AGCACAGCGGCCAGGACTACACATCCCAGCATGCAA,338
8,ACAGAGCAGGAAGCAGCCCTCACCTCAGATGAAGCA,2360
9,CGTCCCCGAAAAGCCGCGGCAGAAACTTCCGGCGGT,3130
10,AACAACCCAAAAGCCAACTCGGCGGAAGGCCTTGGC,341
11,GCAGGAAATGACGTCAGACCTCACTGAGGGTCTGAG,2130
12,GTAGCCGGGTGTTCCGGAGCGCTGCAGGCAAAGCAG,497
13,AGGAGGGGGAAAGCACCAAAGCCAGGAAGTTACACA,1200
14,CCAAGAGCACAGCTCCAAGAGACCTTCCTGTTTATT,548
15,AACCTCTAAGGAAGCGGTGTGTGCACCCTCATGCTG,389
16,GGCCCCTGCTTCCGGGTGTGACGCGAACCTCGGGCA,12400
17,CCCTTTTTCCCCCCAAACAGCTTCCTCTGCTAAGAA,808
18,GTTTTGTGACTTTTTAAGCATGACATACAGGATATT,550
19,TTGAAGCTCTCCCGCTGAAGCTACATCCTCTGGAAA,637
20,GTAAAAGGAAGTAAAGGCTTGGCCGGGCGCGTTGGC,1230
21,GAAGCTTCGGTGAAGTCTGAAGTTTCCTGGGCCGGG,380
22,CGCCCACCACTTCCTGCTGGCGCTCGGCAAGCGTTG,16900
23,GTAGCCACGGCGGCCGCCACGCCCCGTTTCCTGGTC,481
24,GGAGGAAGGCAGGAAAGAAAGAGGTGGATTCGGCAC,543
25,GACCTCTTTTCCTGTACTAGCAACTCCCCGCTGCAG,3720

row,Sequence,ETS1 binding intensity
1,GACCTTCAGCGCTGGGTCCCGGAACTGGGTTTTAGG,367
2,CATTTTGTCGGCGCAGCCACCTTCCTGGAGAGCCCG,1010
3,ACTTGACTTCCTGTGGGGTGTCTGGTGTCTGCACTT,11700
4,TGCAACGCGCTTGCGCGGACGGCTTCCTGTGTTTTC,979
5,GTGAAGACCCCAAGTTGGGGCAGATGGCTTCCGACT,343
6,TCTTCAGGCGTCTTTCCGGTGGTGGGCGTTTTTGCT,3750
7,GCCGCTGAAAGCCCTCAACCAGCGGAACGCAGGCGA,314
8,ACGTAGACAGGAAAGTAATGTTGTTCAGGACTGAGT,526
9,GAGGGTGAGCGGCCAAGAGACCTCCAGGAAGAGCGG,345
10,GCGGAGCTTGTAGGCCAGGAGGACTTCCGGGTGGGT,2220
11,CCAGCCGCTTCACCACCCCTCAGCGACTTCCGCTTC,1710
12,CTCCTGCTGTTGCCAGGCAACCGGCCCCGGAAGTTG,676
13,CAAAACATGAACCCCAAACCCCAGCTTCCTCTTGCA,496
14,CAGACAGGATGACAGCTGGCTGGCCTGCAGCACCTC,684
15,TAAATGCTCACCCCAACCTGCTTCCTTTTCTACCAG,575
16,TACGGGAACTTCCTTTTCTTGAGGTGTAGCCGGGTC,4380
17,TGCCGGGTCACCAGAGGCGCACGTGTTCCGGCAGGG,338
18,CGGCGCTGCAGGCACCGAGTAAAACGCGGAAGCGGG,386
19,TTCGCGCCCACCTGCATCGCCAGTTTTCCGGCGCCA,371
20,GCGAGGGTGGAAGGAAGCAGTGACAGCGCTCCTCTC,461
21,TGGGACCTCTAATCGGAGAGGGTGCGGAAACGCTGG,360
22,GCAGGTTTTGTAGGCCGCTTCCACAGGAAAACATGC,395
23,TGCTGTTTCCTCTGCTGCCGAAGCGATTTCTTCCAC,3310
24,TTTTGGGGTTCTAGAGGGGCAGGCTTCCTGATTGCA,576
25,ACAGAGGTGCTACCCCAAGGACCGGAAGCAGAGACC,3940
